# Measured values published in the supplement of paper PMC4604168 (melanoma cell lines).
# The other results are listed elsewhere or left out. Most values come without repeats; read them as rough.
# Experiments:
# Experiment in all cases: cell count relative to DMSO control; melanoma cells; higher = more viable cells
# Settings in all cases: library dose: low library concentration; 72 h
# MZ2-MEL = tested on: MZ2-MEL
# MeWo = tested on: MeWo
# RPMI7951 = tested on: RPMI7951
# RVH-421 = tested on: RVH-421
# SkMel28 = tested on: SkMel28
# SkMel30 = tested on: SkMel30
# SkMel5 = tested on: SkMel5
# UACC257 = tested on: UACC257
# UACC62 = tested on: UACC62
# WM115 = tested on: WM115
# WM1716 = tested on: WM1716
# WM1745 = tested on: WM1745
# WM3526 = tested on: WM3526
# WM3619 = tested on: WM3619
# WM451Lu = tested on: WM451Lu
# 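Note: cell number obtained by counting DAPI-stained nuclei in high-throughput microscope images with image analysis software, screen run in 1,536-well plates.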
Structure (SMILES),cell count (MZ2-MEL) [%],cell count (MeWo) [%],cell count (RPMI7951) [%],cell count (RVH-421) [%],cell count (SkMel28) [%],cell count (SkMel30) [%],cell count (SkMel5) [%],cell count (UACC257) [%],cell count (UACC62) [%],cell count (WM115) [%],cell count (WM1716) [%],cell count (WM1745) [%],cell count (WM3526) [%],cell count (WM3619) [%],cell count (WM451Lu) [%]
"CN(NC(=O)CC(=O)NN(C)C(=S)c1ccccc1)C(=S)c1ccccc1 + Oc1nc(-c2ccc(C(F)(F)F)cc2)nc2c1CSCC2 [XAV939] (first compound 0.006 µM, partner dose 2 µM)",91.8,94.3,64.6,59.8,85.6,93.3,67.7,80.7,107,78.9,55.2,76.7,86.1,88.8,83.7
"CC(C)(C)c1cnc(CSc2cnc(NC(=O)C3CCNCC3)s2)o1 + COc1cc(N2CCC(N3CCN(C)CC3)CC2)ccc1Nc1ncc(Cl)c(Nc2ccccc2S(=O)(=O)C(C)C)n1 [NVP-TAE684] (first compound 0.01 µM, partner dose 0.08 µM)",100,81.7,93.3,80.8,99.9,122,93.6,73.7,80.6,92.9,88,78.1,110,103,102
"CCc1ccc(CCOc2ccc(CC3SC(=O)NC3=O)cc2)nc1 (stereo not given) [pioglitazone] + Oc1cc(-c2nc(-c3ccccc3)[nH]c2-c2ccncc2)ccc1Cl [L779450] (first compound 2 µM, partner dose 0.2 µM)",84.5,95.7,102,80,79.7,76.9,102,74.5,62.5,91.4,115,84.5,83,114,105
"Cc1ccc(NC(=O)c2cccc(N(C)C)c2)cc1NC(=O)c1ccc(O)cc1 + COc1cc2ncnc(Nc3ccc(Oc4ccccc4)cc3)c2cc1OC [SrcI1] (first compound 2 µM, partner dose 2 µM)",75.3,93.3,99.7,105,81.7,89.3,109,102,92.6,103,115,86.6,87.6,110,104
"Cc1ccc(NC(=O)c2cccc(N(C)C)c2)cc1NC(=O)c1ccc(O)cc1 + O=C1NC(=O)/C(=C/c2ccc(-c3ccc(F)cc3O)o2)S1 [AS252424] (first compound 2 µM, partner dose 1 µM)",77.1,86.8,96,101,91.6,91.9,99.3,91.9,111,96.1,110,99.1,85.8,132,96.4
"Cc1ccc(NC(=O)c2cccc(N(C)C)c2)cc1NC(=O)c1ccc(O)cc1 + CCc1ccc(CCOc2ccc(CC3SC(=O)NC3=O)cc2)nc1 [pioglitazone] (first compound 2 µM, partner dose 2 µM)",72,98.8,72.5,89.6,80.5,95.2,102,84.5,90.1,107,94.8,91.9,115,92.8,92.2
"CN(NC(=O)CC(=O)NN(C)C(=S)c1ccccc1)C(=S)c1ccccc1 + CCN(CC)CCCCNc1ncc2cc(-c3cc(OC)cc(OC)c3)c(NC(=O)NC(C)(C)C)nc2n1 [PD173074] (first compound 0.006 µM, partner dose 0.1 µM)",99.9,79.4,107,129,94.1,82,94.9,77.6,84.3,80.6,87.7,33.4,92.8,32,110
"COc1cc2c(Oc3ccc4[nH]c(C)cc4c3F)ncnc2cc1OCCCN1CCCC1 [cediranib] + COc1ccc(-c2ccc3c(N4CCOCC4)nc(N4C[C@@H](C)O[C@@H](C)C4)nc3n2)cc1CO [KU0063794] (first compound 0.4 µM, partner dose 0.02 µM)",97.2,113,119,96.1,102,96.6,101,61.4,108,100,102,113,114,98.7,107
"CN(NC(=O)CC(=O)NN(C)C(=S)c1ccccc1)C(=S)c1ccccc1 + COc1ccc2c(c1)CCC1C2CCC2(C)C(NCCCCCCN3C(=O)C=CC3=O)CCC12 [U73122] (first compound 0.006 µM, partner dose 0.4 µM)",94.1,120,80.4,82.1,87.3,71,107,81.4,123,99.8,82,111,100,116,114
"Cc1ccc(NC(=O)c2cccc(N(C)C)c2)cc1NC(=O)c1ccc(O)cc1 + COc1cc(N2CCC(N3CCN(C)CC3)CC2)ccc1Nc1ncc(Cl)c(Nc2ccccc2S(=O)(=O)C(C)C)n1 [NVP-TAE684] (first compound 2 µM, partner dose 0.08 µM)",74.7,99.4,92.9,96.9,90.1,78.2,110,110,93.4,98.6,104,88.4,116,93.2,83.3
